Measured values published in the supplement of paper PMC12645437, “Orthogonal IMiD-Degron Pairs Induce Selective Protein Degradation in Cells” (ACS Chemical Biology, 2025).
Some of the results follow.

Each sequence was assayed against no compound (DMSO) (assay: log2 fold change of degron read counts, EGFP-low vs EGFP+ sorted cells; higher = lower degron-EGFP level without compound (poor expression or instability)). Settings: compound: DMSO control; 18 h.
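Further: jurkat cells carrying a lentiviral library of mutant zinc finger degrons fused to EGFP plus mCherry, mCherry+ cells FACS sorted, degron abundance counted by next-generation sequencing.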

| Sequence | log2 fold change of degron read counts |
| --- | --- |
| LTCPICGFGCTQKGNLLRHIKL | 0.631 |
| FYCPICGHKFTQKGNLLRHIKL | -1.12 |
| LTCNQCGFYCTQKGNLLRHIKL | 1.44 |
| FTCDVCGAKFTQKGNLLRHIKL | -1.46 |
| FHCPICGHNFTQKGNLLRHIKL | -0.275 |
| FRCDICGAGFTQKGNLLRHIKL | -1.34 |
| FLCDICGAFFTQKGNLLRHIKL | -0.573 |
| FACNQCGAEFTQKGNLLRHIKL | -1.03 |
| LHCEICGFACTQKGNLLRHIKL | -0.201 |
| FNCNQCGRKFTQKGNLLRHIKL | -0.0217 |
| FMCPQCGADFTQKGNLLRHIKL | -2.06 |
| FSCEICGHNFTQKGNLLRHIKL | -2.82 |
| FTCNQCGARFTQKGNLLRHIKL | -0.785 |
| FTCEICGRCFTQKGNLLRHIKL | -1.18 |
| LRCEICGFCCTQKGNLLRHIKL | 0.0023 |
| LTCEICGFFCTQKGNLLRHIKL | 1.37 |
| FGCEQCGATFTQKGNLLRHIKL | -1.5 |
| FHCSVCGHGFTQKGNLLRHIKL | -0.401 |
| LTCEICGFKCTQKGNLLRHIKL | -1.19 |
| LECPICGFLCTQKGNLLRHIKL | 0.315 |
| LFCPICGFKCTQKGNLLRHIKL | 0.553 |
| LWCPICGFECTQKGNLLRHIKL | 1.45 |
| FACPICGAQFTQKGNLLRHIKL | -0.141 |
| FRCNQCGHSFTQKGNLLRHIKL | -0.0851 |
| FWCPQCGAGFTQKGNLLRHIKL | 0.548 |

| Sequence | log2 fold change of degron read counts |
| --- | --- |
| FDCEICGRWFTQKGNLLRHIKL | 0.747 |
| FWCEICGAKFTQKGNLLRHIKL | -0.848 |
| FNCEICGRNFTQKGNLLRHIKL | -0.761 |
| FDCPVCGAKFTQKGNLLRHIKL | -1.22 |
| FYCDICGADFTQKGNLLRHIKL | -1.78 |
| LVCPICGFLCTQKGNLLRHIKL | 1.35 |
| FQCEICGHNFTQKGNLLRHIKL | -1.12 |
| LVCEICGFICTQKGNLLRHIKL | 0.601 |
| FDCNVCGAAFTQKGNLLRHIKL | -1.67 |
| FACDVCGASFTQKGNLLRHIKL | -1.35 |
| FQCDVCGAMFTQKGNLLRHIKL | -0.783 |
| FTCPICGAPFTQKGNLLRHIKL | 0.495 |
| FACDVCGARFTQKGNLLRHIKL | -1.06 |
| FNCEVCGADFTQKGNLLRHIKL | -2.16 |
| FFCPQCGAGFTQKGNLLRHIKL | 0.0377 |
| FCCDQCGANFTQKGNLLRHIKL | -1.99 |
| FKCEICGASFTQKGNLLRHIKL | -0.947 |
| FYCNVCGACFTQKGNLLRHIKL | -0.0945 |
| FACPQCGAVFTQKGNLLRHIKL | -0.178 |
| FLCDVCGADFTQKGNLLRHIKL | -1.16 |
| FYCPICGRSFTQKGNLLRHIKL | -3.25 |
| FLCPICGATFTQKGNLLRHIKL | -0.199 |
| FECNQCGHGFTQKGNLLRHIKL | -0.795 |
| FRCEICGAVFTQKGNLLRHIKL | -0.106 |
| FHCPVCGAMFTQKGNLLRHIKL | -0.184 |
